Data reported in PubChem BioAssay (NCATS).
Values joined by “and” are separate entries in the source; they are usually repeats but may differ in a detail not shown here. Equal entries are not always repeated. Inconclusive results, whose numbers are uncertain, are shown with a selection of clear calls. Potencies of inconclusive entries are doubtful fits and often do not repeat. Where a structure was tested more than once in an assay, its records may differ in their call. Active and inactive are the calls of the source. Calls come from the whole dose curve; as a rule, active = well fitted inhibition curve with a large enough effect; inconclusive = small, poorly fitted or top-dose-only effect; inactive = no such curve, though single readings can be large or run the other way.

Assay: qHTS assay for measurement of the activity of small molecule inhibitors on Zika virus induced Caspase-3 activity in human iPSC derived neural progenitor cells (hNPCs) (AID 1224857); note: nearly all actives have a fitted effect of over 65% in size
Conditions: hNPCs ZIKV-induced caspase-3/7, Caspase-Glo luminescence, 6 h; series mostly up to 45.7 µM
Source text: National Center for Advancing Translational Sciences [NCATS]
Johns Hopkins University School of Medicine
Increase in the Caspase-3 activity indicates an activation of apoptosis cell death pathway caused by Zika virus infection in certain types of neuronal cells including human neural progenitor cells (hNPCs), astrocytes, and astrocytoma cell line (SNB-19). This cell-based caspase-3 activity assay measures the increased caspase-3 activity in the human iPSC derived neural progenitor cells (hNPCs) after a 6-hour Zika virus infection with a luminescence readout. A decrease in the luminescence signal in this assay by small molecule treatment indicates an inhibitory effect of that small molecule on the Zika virus induced caspase-3 activity that may correlate with its effect on reduction of Zika virus caused cell death.
The medium for hNPCs consists of DMEM/F12, N2 supplement (ThermoFisher, Cat.# 17502048), NEAA (ThermoFisher, Cat. # 11140050), 2 ug/ml heparin, 2 uM cyclopamine, and B27 (ThermoFisher, Cat. # 17504044). A Caspase-Glo 3/7 assay kit (catalog number G8092; Promega, Madison, WI) was used to detect caspase-3 activity induced by Zika virus infection in human cells. The reagent mixture was reconstituted as described in the protocol from the manufacturer. Polystyrene tissue culture treated and PDL coated white plates were obtained from Greiner Bio-One (Monroe, NC). Cells were seeded in 384- or 1536-well assay plates and cultured at 37 C with 5% CO2 for 16 to 20 hours. The typical cell seeding density in the 1536-well plate assay is 350 cells/well in 3 ul medium for hNPCs in tissue culture treated plates. Compounds were added to cells and incubated for one hour before addition of ZIKV solution to cells (2 FFU/cell). After incubation at 37 C with 5% CO2 for 6 hours, the reagent mixture of Caspase-Glo 3/7 assay kit was added to each well, followed by incubation at room temperature for 30 minutes. The luminescence intensity of the assay plates was measured using a ViewLux plate reader (PerkinElmer). Data were normalized by using the cell-containing wells without ZIKV as a negative control (0% induction of caspase 3/7 activity) and wells containing ZIKV infected cells (Caspase-3 activity induced) as a positive control (100% induction of caspase 3 activity). The percentage inhibitions of the increased Caspase-3 activity by small molecule inhibitors were then calculated.
Potency is the fitted concentration of half-maximal effect; tags give direction and shape of the fitted curve.

Row | Compound | Potency
1 | O=C(O)c1cc(O)c(O)c(O)c1 | inconclusive: 31.6 µM [inhibitor, partial curve, poor fit]
2 | Oc1ccc2ccccc2c1SSc1c(O)ccc2ccccc12 | inconclusive: 37.2 µM [inhibitor, single point]
3 | O=c1cc(-c2ccccc2)oc2cc(O)cc(O)c12 | active: 20.9 µM
4 | COCCCN1CCC(NC(=O)c2cc(Cl)c(N)c3c2OCC3)CC1 | inconclusive: 12.6 µM [inhibitor, partial curve, poor fit]
5 | O=C1CCCC2=C1C(c1[nH]ncc1Cl)N=C(Nc1nc3ccccc3o1)N2 (stereo not given) | inactive
6 | CCCCCNC(=O)N1CCC(CN(Cc2ccc(Cl)cc2)Cc2ccc([N+](=O)[O-])s2)C1 (stereo not given) | inconclusive: 16.6 µM [inhibitor, partial curve]
7 | COc1ccc(-c2coc3cc(O)cc(O)c3c2=O)cc1 | inconclusive: 26.4 µM [inhibitor, single point]
8 | Nc1ccc([N+](=O)[O-])cc1O | inconclusive: 70.8 µM [inhibitor, single point]
9 | C[C@H](Cc1ccc(O)c(O)c1)[C@@H](C)Cc1ccc(O)c(O)c1 | active: 26.4 µM
10 | CN1C2CCC1CC(OC(=O)C(O)c1ccccc1)C2 (stereo not given) | inconclusive: 35.5 µM [inhibitor, single point]
11 | Nc1ccc(C(=O)O)c(O)c1 | inconclusive: 28.2 µM [inhibitor, partial curve, poor fit]
12 | O=C1NC(=O)/C(=C/c2ccc(-c3ccc(F)cc3O)o2)S1 | active: 10 µM
13 | CC[C@]1(O)C[C@@H]2CN(CCc3c([nH]c4ccccc34)[C@@](C(=O)OC)(c3cc4c(cc3OC)N(C=O)[C@@H]3C45CCN4CC=C[C@](CC)([C@H]45)[C@@H](OC(C)=O)[C@]3(O)C(=O)OC)C2)C1 (stereo not given in full) | inconclusive: 6.62 µM [inhibitor, partial curve, poor fit]
14 | Cc1ccc2c(n1)Oc1ccc(C(C)C(=O)OCC(=O)N(C)C)cc1C2 (stereo not given) | active: 14.1 µM and inconclusive: 15.8 µM [inhibitor, partial curve, poor fit]
15 | O=Nc1ccc2oc(=O)ccc2c1 | inconclusive: 22.4 µM [inhibitor, single point]
16 | CCCS(=O)c1ccc2nc(NC(=O)OC)[nH]c2c1 (stereo not given) | active: 10 µM and active: 16.6 µM
17 | CCCNC(C)C(=O)Nc1ccccc1C (stereo not given) | inactive
18 | O=C1c2c(O)cc(O)cc2O[C@H](c2cc(O)c(O)c(O)c2)[C@H]1O | inconclusive: 26.4 µM [inhibitor, partial curve, poor fit]
19 | NS(=O)(=O)c1cc(C(=O)O)c(NCc2ccco2)cc1Cl | inconclusive: 11.8 µM [inhibitor, partial curve, poor fit]
20 | CCN1CCC(n2cc(CNc3cc(Cl)c4ncc(C#N)c(Nc5ccc(F)c(Cl)c5)c4c3)nn2)CC1 | active: 18.7 µM

Row | Compound | Potency
21 | Nc1ccc(N2C(=O)c3ccccc3C2=O)c(Cl)c1 | inactive
22 | O=C(O)C=Cc1ccc(O)c(O)c1 | inconclusive: 23.5 µM [inhibitor, single point]
23 | COC(=O)/C=C\C(=O)OC | inactive
24 | O=c1[nH]c(=O)c2nc3ccccc3nc2[nH]1 | inactive
25 | CCCOC(=O)c1ccc(O)cc1 | inconclusive: 70.8 µM [inhibitor, single point]
26 | CCC[C@@H]1C[C@@H](C(=O)N[C@@H]([C@H]2O[C@H](SC)[C@H](O)[C@@H](O)[C@H]2O)[C@@H](C)O)N(C)C1 | inconclusive: 23.5 µM [inhibitor, partial curve, poor fit]
27 | C[C@H](NC(=O)C(=O)Nc1ccccc1C(C)(C)C)C(=O)N[C@@H](CC(=O)O)C(=O)COc1c(F)c(F)cc(F)c1F | active: 2.35 µM
28 | C#CC(C)(CC)OC(=O)c1ccccc1C(=O)O (stereo not given) | inactive
29 | CCC(C(=O)O)c1ccc(N2Cc3ccccc3C2=O)cc1 (stereo not given) | inconclusive: 15.8 µM [inhibitor, partial curve, poor fit]
30 | N[C@H](CSC(c1ccccc1)(c1ccccc1)c1ccccc1)C(=O)O | inconclusive: 0.132 µM [inhibitor, single point]
31 | COc1ccc(NC(=O)/C=C/c2ccc(Cl)cc2)cc1 | inconclusive: 1.26 µM [inhibitor, full curve, poor fit]
32 | COc1ccc(-c2coc3cc(O)ccc3c2=O)cc1 | active: 18.7 µM
33 | COC(=O)C1=CO[C@@H](O)[C@@H]2C(CO)=CC[C@@H]12 | inconclusive: 18.7 µM [inhibitor, single point]
34 | O=C(O)Cc1ccc(-c2ccccc2)cc1 | inconclusive: 15.8 µM [inhibitor, full curve, poor fit]
35 | Cc1ccc(C(=O)c2ccc(CC(=O)O)n2C)cc1 | inconclusive: 15.8 µM [inhibitor, full curve, poor fit]
36 | COc1ccc(C=CC(=O)Nc2ccccc2C(=O)O)cc1OC | active: 2.64 µM
37 | O=C(Nc1ccccc1)OCC(CN1CCCCC1)OC(=O)Nc1ccccc1 (stereo not given) | inactive
38 | Oc1cc(O)cc(C=Cc2ccc(O)c(O)c2)c1 | active: 23.5 µM
39 | Cc1cc2cc3c(C)cc(=O)oc3c(C)c2o1 | inconclusive: 10 µM [inhibitor, single point]
40 | CC(C)(C)NC[C@H](O)COc1cccc2c1CCCC2=O | inactive
